In the supplement of paper PMC3334620:
The full ranking holds about 33,000 sequences; the median of “E-score (-0.5 to 0.5)” is about -0.011, and the highest 2% start at about 0.28. This is one part of the list.

The sequences below were run against T1, Gcr1 (UniProt P07261) (assay: PBM E-score (8-mer binding enrichment) (E-score (-0.5 to 0.5)); higher = stronger / more preferred TF binding; most listed sequences are background and not binding sites). Details: protein concentration: 100 nM; construct: GST-full length.
T1 sequence: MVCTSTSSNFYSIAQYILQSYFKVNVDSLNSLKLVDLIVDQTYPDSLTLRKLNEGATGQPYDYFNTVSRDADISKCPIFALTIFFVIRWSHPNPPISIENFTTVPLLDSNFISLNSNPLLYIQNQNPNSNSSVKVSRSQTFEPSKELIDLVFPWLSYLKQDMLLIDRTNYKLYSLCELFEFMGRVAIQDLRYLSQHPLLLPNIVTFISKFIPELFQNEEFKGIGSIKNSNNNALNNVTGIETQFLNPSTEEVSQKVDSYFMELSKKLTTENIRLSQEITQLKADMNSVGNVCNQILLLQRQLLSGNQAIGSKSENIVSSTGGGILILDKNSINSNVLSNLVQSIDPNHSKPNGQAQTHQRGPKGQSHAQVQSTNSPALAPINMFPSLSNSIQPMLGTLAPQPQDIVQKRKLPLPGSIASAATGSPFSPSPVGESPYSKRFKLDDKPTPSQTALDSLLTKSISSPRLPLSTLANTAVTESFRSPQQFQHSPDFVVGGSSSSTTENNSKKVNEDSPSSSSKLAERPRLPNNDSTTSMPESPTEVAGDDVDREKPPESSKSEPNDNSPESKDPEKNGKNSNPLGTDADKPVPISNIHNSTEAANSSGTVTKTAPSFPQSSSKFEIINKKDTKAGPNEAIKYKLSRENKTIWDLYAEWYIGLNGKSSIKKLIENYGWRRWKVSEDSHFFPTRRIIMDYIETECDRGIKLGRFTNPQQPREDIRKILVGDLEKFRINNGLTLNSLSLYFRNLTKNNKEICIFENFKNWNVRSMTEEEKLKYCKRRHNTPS
Summary of the method: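 PURExpress in vitro transcription/translation supplied GST-tagged yeast transcription factors, either full-length or DNA-binding domain. Applied at about 100-200 nM to universal all-10-mer Agilent arrays double-stranded by primer extension, the bound protein was detected with fluorescent anti-GST. E-scores, modified Wilcoxon-Mann-Whitney statistics, were given by the Universal PBM Analysis Suite to ungapped eight-base words pooled with their reverse complements after masliner normalisation.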

Sequence | PBM E-score
AGATCGCT | -0.203
AGCAATAA | -0.0215
GACTTGCA | -0.271
AACGGAAC | 0.0821
TCGACCCA | -0.0748
ATGCATGC | -0.387
AAAAACAG | 0.151
AGGCAAAT | -0.0661
CCTGTTGA | 0.109
AGAGTACA | -0.122
ACCCCGCA | 0.00992
AGACACCA | 0.158
TAAGATCA | 0.157
GAATATGC | -0.113
GCAAGCCA | -0.146
GAGCGTTA | -0.0907
CTACGGAC | -0.17
GATACGGA | 0.142
ATTGGCAC | 0.115
ATTACGGG | 0.0709
AGTTGTAT | 0.178
ATCGTGCG | -0.0151
CGCCTAAG | 0.0636
GAACTCCA | -0.0129
TCCACAGA | 0.114

Sequence | PBM E-score
CGGAGACG | -0.0596
CGCCACTA | 0.276
CGAACTGA | -0.195
AATTATGA | -0.0204
GCAGATAA | -0.0796
CCAAGTCG | -0.0633
GAGACAGC | -0.132
CCCACCTC | -0.0577
AGCTTACG | 0.0302
TGCCCGCA | 0.0917
ATATACGC | 0.243
CGAAGTCC | 0.00686
GTATAAGA | 0.113
GACCCTCA | -0.192
GCCGCTGA | 0.166
AATGCTGA | 0.00038
CCCTTAGG | -0.276
GTGAAAAA | 0.216
AGCGTTAG | -0.032
ATGAATAG | 0.0669
AGAGGAAC | 0.177
CTCCTCCA | 0.0338
AGGTTTCC | 0.154
AGCTTAGC | -0.27
AAAGCTGA | 0.113

Sequence | PBM E-score
GTTATTTA | 0.126
ACGAGAGT | -0.0462
CAATCGAC | 0.0514
ATGCCGTG | -0.0633
AAGCTAGC | -0.00019
CCATAATC | 0.0216
AGGCTGAC | -0.188
ACTGACAG | 0.0957
CAGGCGTC | 0.09
ATGAACAG | -0.0356
CGACCGAA | -0.144
AAGGGTAT | -0.113
GAAGTTGA | 0.0272
GGAATAGA | -0.126
CAGAGAAG | 0.115
GCCCGTAA | 0.169
AGAGTGCG | 0.0318
AGATCTAA | -0.21
AGGTGAAA | 0.0254
ACTCACAA | -0.0389
CAATGCCC | -0.0928
CACCGATC | 0.0144
CCACTAGC | 0.0324
GCGGATCC | 0.274
CCACAAGG | -0.00285

Sequence | PBM E-score
AATTCATG | 0.0757
ACCACAAT | 0.213
GCCGTTCA | -0.102
GAGACCTA | -0.0263
CCATAGAG | -0.0777
AGAGTGGA | 0.132
GCGACGAC | -0.0448
GAACGCGC | 0.162
ACTACCCG | -0.0834
AAAGCAGC | -0.0508
CTCATCGA | -0.099
CAAAGACG | 0.044
AACGCCAC | 0.00882
CATGATTA | -0.00157
ACCTCTCA | -0.085
ATGGGGAC | 0.125
CTACTAAC | 0.139
ATGCCGAC | 0.027
GCCGCCGC | 0.179
GGCCAACA | -0.225
CCCAGCGA | -0.176
ACACAGAT | -0.0567
CTACCTTC | -0.0216
ACGAGTTC | -0.0282
CAAGACAG | 0.0569

Sequence | PBM E-score
CAGCAATG | -0.166
AGACGGTG | 0.049
ATATCTGA | 0.103
ACCATAAG | -0.105
AGACGACA | -0.133
CATTCCCA | 0.103
ACCTGGAA | 0.154
ATGCCGCA | -0.038
GAGATTGA | 0.116
ACGCCCCC | 0.113
CGCACGTA | 0.00405
AAACCGCC | -0.114
CCCAGCTA | -0.0278
GCTCATCC | -0.217
TTCACAAA | 0.0868
CAGGGATA | 0.0069
CAGACGTA | -0.167
GACCAAGA | -0.0879
GTTGAAGA | -0.0128
CCAATGCG | -0.136
ACCATTTA | 0.0518
CTGCGGTA | -0.142
GGGCGTAC | -0.041
GAATATTA | 0.18
TTACCTAA | 0.0557

Sequence | PBM E-score
AGGGACAG | -0.201
ACCGCTGG | -0.115
CAATGCGA | 0.0573
CGCCCAAC | 0.0623
AATTAGCG | 0.0885
AGAACGTA | -0.138
AGTAGCCG | 0.0644
ACTTCCAG | 0.377
CCCGCGCC | 0.0213
GAACTCGC | 0.0911
TCTCAACA | 0.103
AGAGTAAT | 0.115
TCATTGCA | -0.191
CCCTCCCC | 0.176
AACAATGA | -0.0104
AATGTCTC | -0.146
ATTCTAAG | 0.0378
CTAGCTCC | -0.0243
AGGTCCGA | -0.114
ACTCTTCT | 0.0323
GAAGAGGA | 0.107
CCTCAAAC | -0.0617
CCACCCCG | 0.00394
GCAGGTTA | -0.277
AAATGACT | 0.139

Sequence | PBM E-score
AGGGCCCT | -0.17
ATCTGCTC | -0.0662
AAACACAT | 0.117
TACTGCTA | -0.227
ACGAGGGG | -0.0844
GCGTTGAC | -0.19
CCCAATAA | 0.0668
AGTCGTAC | -0.142
ATCCTCGG | 0.0754
TGGAGCAA | 0.125
AGAATAGC | 0.0451
ACTGCGGG | 0.0686
ATCAGACG | 0.0535
AGCAAGGA | -0.242
ACAGGTAG | 0.229
CACGAGGG | -0.0984
AGGACTAA | -0.114
AGATCCAC | 0.183
GAGCGGAA | 0.179
AATGTGAC | -0.132
AAAGTCAT | -0.188
AGCCATTG | -0.065
